Among the data in PubChem BioAssay AID1240 (Sanford-Burnham Center for Chemical Genomics, 2008) are displacement values, retold here.

Among all 50,000 compounds or so, about 800 (1.6%) showed an effect of 50% or more. Some of the results follow.

The target of this test is Bcl-2-like protein 10 (Homo sapiens) (UniProt Q9HD36). As to the kind of experiment: TR3 peptide-Bcl-B binding displacers, biochemical primary FP assay, phenotype converters (AID 1240).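 Further: 0% = Bcl-B with tracer peptide and DMSO and 100% = tracer peptide lacking Bcl-B.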 Conditions: GST-Bcl-B / FITC-TR3 peptide fluorescence polarization; stronger effect = higher value; compound at 3.75 mg/L.
Sequence of UniProt Q9HD36 (Q9HD36 whole entry, looked up): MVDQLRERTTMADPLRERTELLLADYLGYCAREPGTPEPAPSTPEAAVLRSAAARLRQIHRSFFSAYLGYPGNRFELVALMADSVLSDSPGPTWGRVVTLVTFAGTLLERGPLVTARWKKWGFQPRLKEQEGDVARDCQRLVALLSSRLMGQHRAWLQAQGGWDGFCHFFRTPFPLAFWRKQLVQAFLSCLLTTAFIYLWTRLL
As to `CCC(C)NC(=O)CN(c1ccc(OC)cc1)S(=O)(=O)c1ccccc1` (configuration not stated), the displacement worked out at 6.9%.

Consider `CCOc1cccc(N2C(=O)CC(S/C(N)=N/N=C(\C)c3ccc(Cl)s3)C2=O)c1` (configuration not stated), for which the displacement is -22.7%. To `CC(=O)Nc1ccccc1NS(=O)(=O)c1ccc(Cl)cc1` belongs 3.3%; to `COCCCNC(=O)CN(c1cc(Cl)ccc1OC)S(=O)(=O)c1ccc(C)c([N+](=O)[O-])c1`, 1.6%; to `CCOc1ccccc1NC(=O)c1c(NC(=O)c2ccccc2F)sc2c1CCC(C)C2` (configuration not stated), -6.4%. `O=C1/C(=C\c2ccccc2)SC(=S)N1CN1CCCCC1`: the displacement came to 6.6%.

Take `CC(=O)Nc1ccc(S(=O)(=O)NC(C)=O)cc1`: the displacement is 9%. To `COc1ccc(CCN(C(=S)Nc2ccccc2)C2CC(=O)N(c3ccc(Cl)cc3)C2=O)cc1` (configuration not stated) belongs -3.3%.

As for `Cc1ccc(-n2c(SCC(=O)N3CCOCC3)nc(O)c(Cc3ccccc3)c2=O)cc1`, the displacement was 3%. In the case of `Cc1ccsc1/C=C(\C#N)c1nc(-c2cccc(Br)c2)cs1`, the displacement is 95.2%. For `CCc1ccc(NC(=O)COc2cccc(C)c2C)cc1`, the displacement was -9.3%.

For `O=C(Nc1cccnc1)c1cnn2c1NC(c1ccco1)CC2C(F)(F)F` (configuration not stated), the displacement stood at 3.4%. `CC(C)(C)C1=NN(C(=O)c2ccccc2)C(O)(C(F)(F)F)C1` (configuration not stated): the displacement came to 10.3%. For `CC(O)c1cccc(NC(=O)c2cc3n(n2)C(C(F)(F)F)CC(c2ccc(Cl)cc2)N3)c1` (configuration not stated), the displacement was found to be 14.7%. To `O=C(Nc1ccc(Cl)c(-c2nc3ncccc3o2)c1)c1ccccc1` belongs 3.7%. Turning to `CCOC(=O)COc1ccc(/C=N/NC(=O)COc2ccc([N+](=O)[O-])cc2)c(OCC(=O)OCC)c1`, the displacement was found to be 8%.

Consider `CCOC(=O)Cn1c(C)cc(COC)c(C#N)c1=O`, for which the displacement amounted to 2.5%.

Regarding `O=c1[nH]c(=O)n(Cc2ccccc2)cc1F`, the displacement is -2.7%. Next, `C=CCn1c(-c2cccc(Cl)c2)n[nH]c1=S`: -18.7%. Take `CCn1ccnc1C(O)(c1ccccc1)c1ccc(C)cc1` (configuration not stated): the displacement was -1%. Next, `O=C(O)/C(=C/c1ccccc1)c1c(F)c(F)c(F)c(F)c1F`: -6.3%; `COc1cccc(-n2c(C=C3C(=O)N(C(C)C)c4ccccc43)nc3ccccc3c2=O)c1`: -4%. As for `COc1cc(/C=C2\C(=O)N(c3ccccc3)N=C2C)c([N+](=O)[O-])cc1OC`, the displacement is -11.5%. Next, `CC1=C(C(=O)Nc2ccccc2)C(c2ccc(F)cc2)N2C(=O)CSC2=N1` (configuration not stated): -9.4%; `O=C(c1ccco1)N1CCN(CCN2C(=O)c3cccc4cccc(c34)C2=O)CC1`: 16.9%. Next, `O=C(CN1C(=O)c2ccc([N+](=O)[O-])cc2C1=O)Nc1cc(Cl)ccc1C(=O)O`: 12.4%; `O=C(O)CCCNS(=O)(=O)c1ccc(Br)c(C(=O)O)c1`: -3.7%; `CC1(C)OC(=O)C(=Cc2ccc(I)o2)C(=O)O1`: 26.4%. Next, `Cc1ccc(C#CC#Cc2ccc(C)nc2)cn1`: 19.9%; `Fc1ccccc1Cn1nnc(-c2ccccc2)n1`: -2.3%. As to `NS(=O)(=O)c1ccc(NC(=S)NC(=O)c2ccc(Br)cc2)cc1`, the displacement turned out to be 1%. Next, `COc1ccc(C2NC(=S)NC3=C2N2CCC3CC2)cc1` (configuration not stated): -5.7%; `c1cc(CN2CCN(C3CCCCCC3)CC2)ccn1`: -13.5%; `Cc1ccc(N2C(=O)CC(Sc3ccc(F)cc3)C2=O)cc1` (configuration not stated): 1.9%. Next, `CCc1ccc(-c2nnc(-c3ccccc3Cl)o2)cc1`: -1.7%; `COC(=O)COc1ccc(/C=N/n2cnnc2)cc1OC`: -6.6%; `CCCCN(CCCC)C(=O)c1ccc(Cl)cc1Cl`: -10.4%. To `COc1ccc(C(=O)/C=C/c2ccc(OC3CSC3)cc2)cc1OC` belongs 2.2%. For `NC(=O)c1c(NC(=O)c2ccc(F)cc2)sc2c1CCCC2`, the displacement was -1.5%.

Consider `COc1ccc(N2C(=O)C(Cl)=C(Nc3ccc(C)cc3)C2=O)cc1`, for which the displacement is -24.9%. Take `O=P(O)(Oc1cccc(Cl)c1)Oc1cccc(Cl)c1`: the displacement was 14.6%. To `CC(=O)NC(n1c(SCc2ccccc2)nc2ccccc21)C(Cl)(Cl)Cl` (configuration not stated) belongs 8.3%; to `CCOC(=O)C1=C(C)N=C2SCC(=O)N2C1c1ccc(OC)c2ccccc12` (configuration not stated), -4.6%; to `O=C(c1ccc2ccccc2c1)N1CCN(c2ccc([N+](=O)[O-])cc2)CC1`, 15.6%. As to `COc1cc(/C=C2/C(=O)NN(c3cccc(Cl)c3)C2=O)c([N+](=O)[O-])cc1OC`, the displacement amounted to 0.3%. For the compound `O=c1[nH]c(/C=C/c2ccccc2)c([N+](=O)[O-])c(=O)[nH]1`, the displacement was determined as 18.1%. To `COc1ccc(/C=C/C(=O)NCC2CCCO2)cc1Br` (configuration not stated) belongs 13.6%; to `COc1ccc([N+](=O)[O-])cc1N1C(=O)C2C3C=CC(C3)C2C1=O` (configuration not stated), -11.7%; to `COc1ccccc1C=C1C(=O)NC(=S)N(c2ccccc2F)C1=O`, 10%.

For the compound `COc1ccc(Cl)cc1N(CC(=O)NCCSc1nc2ccccc2s1)S(=O)(=O)c1ccccc1`, the displacement came out at 3.4%. Next, `O=C1NN(c2ccccc2)C(=O)/C1=C/c1cccn1-c1ccc([N+](=O)[O-])cc1`: 34.7%; `COc1ccc(NC(=O)c2nn3c(C(F)(F)F)cc(-c4ccco4)nc3c2Cl)c(OC)c1`: -2.5%; `CCOCCOC(=O)c1ccc(NC(=O)c2cccc(Br)c2)cc1`: -6.6%. Next, `CC1=C(C(=O)Nc2ccc(C)cc2)C(c2cc(Br)ccc2O)NC(=O)N1` (configuration not stated): -1%; `Cc1ccccc1NC(=O)C(=O)NCCCN1CCOCC1`: 9.6%. `CC(C)(C)C(O)Cn1c(=N)n(Cc2ccccc2)c2ccccc21` (configuration not stated): the displacement was -6%. In the case of `CC(=O)Nc1ccccc1C(=O)N1CCN(Cc2ccccc2)CC1`, the displacement came out at 3.3%. To `O=[N+]([O-])c1ccc(OCCCCCN2CCOCC2)cc1` belongs 11.6%; to `O=C1/C(=C\c2cccc(O)c2)SC(=S)N1c1cccc(C(F)(F)F)c1`, 9.3%; to `O=C(CSc1ccc(Cl)cc1)NCCc1ccc(F)cc1`, -8.3%. As to `OCCN=Cc1ccc(Cl)cc1Cl`, the displacement is -4.2%. For `COc1cc(/C=C2\C(=O)NC(=S)N(c3ccc(F)cc3)C2=O)ccc1OCC(=O)O`, the displacement came to 6.8%. To `O=C(COc1ccc2ccccc2c1)N1CCN(c2ccccn2)CC1` belongs 5.4%; to `CCC(C)C(NC(=S)Nc1ccccc1)C(=O)O` (configuration not stated), 10.2%. To `O=C(Nc1ccccc1)c1ccccc1C(=O)OCCCCCc1cccs1` belongs 1.6%; to `CC(=O)Nc1ccccc1NC(=O)COc1ccc(C)cc1`, 5.8%.

Consider `O=c1/c(=C/c2ccc(O)c(Cl)c2)sc2nc3ccccc3n12`, for which the displacement is 24.9%. For `CCn1c(C)c(C(=O)O)c2cc(OC)c3ccccc3c21`, the displacement was 8.5%.

For the compound `COc1ccc(C(=O)N2CCN(C(=O)c3cccc4ccccc34)CC2)cc1OC`, the displacement is -10.3%. Turning to `Cc1c(Cl)cccc1N=C1NC(=O)/C(=C/c2ccc3c(c2)OCO3)S1`, the displacement was -2.5%. For the compound `Cc1cccc(C(=O)Nc2cccc(S(N)(=O)=O)c2)c1`, the displacement was 3.8%.

`CCCCOC(=O)c1ccc(N2CCOCC2)cc1`: the displacement is -3.6%. Next, `CC(C)(C)c1ccc(C(=O)N2CCN(C/C=C/c3ccccc3)CC2)cc1`: 13.1%. Next, `COCCN1C(=O)/C(=C2/C(=O)N(CC(N)=O)c3ccccc32)SC1=S`: -40%; `COc1ccc(-c2cn3c(n2)SCC3)cc1`: -4.2%; `C=CCc1cccc2cc(C(=O)Nc3cccc4c3C(=O)c3ccccc3C4=O)c(=O)oc12`: 1.4%.

In the case of `COc1ccc(Cl)cc1C(=O)Nc1cccc(-c2nc3cc(C)c(C)cc3o2)c1`, the displacement worked out at 8.7%. Next, `CCOc1ccc2ccc(OCC)c(/C=C3/SC(=S)NC3=O)c2c1`: -0.8%; `Cc1ccc(-c2cc(NC(=O)c3cccs3)n[nH]2)cc1`: 11%. Take `COc1ccc(NC(=S)NCc2ccc(F)cc2)cc1`: the displacement came to 14.6%. To `O=C(NCc1ccc2c(c1)OCO2)c1ccc2c3c(cccc13)CC2` belongs -12.3%; to `CCCCCCC(=O)Nc1nnc(CC(C)C)s1`, -12.9%; to `Cc1cc(C)nc(SCC(=O)NC(C)(C)C)n1`, 3.9%. To `C=CCN1C(=O)/C(=C\c2ccc(N(CC)CC)cc2O)SC1=S` belongs -39%; to `COc1cc(OC)c(OC)cc1CN1CCN(Cc2cccn2C)CC1`, 28.3%. As to `Fc1ccc(-c2noc(-c3ccccc3)n2)cc1`, the displacement was -11.5%. To `O=C(COc1ccc2ccccc2c1)Nc1cccc(Br)c1` belongs 3.7%; to `CCc1ccccc1NC(=O)CC1Nc2cc(C)c(C)cc2NC1=O` (configuration not stated), -85%; to `O=C1NC(=S)N/C1=C\c1ccccc1`, 0.7%.

As to `O=C1C/C(=C/NCCc2ccc(O)cc2)C(=O)N1`, the displacement worked out at 8.5%. On to `COC(=O)C[N+]1=Cc2cc(OC)c(OC)cc2CC1(C)C`, for which the displacement is 1.4%.

Take `NC(=O)C1CCN(C(=O)COc2ccccc2)CC1`: the displacement was 3.9%. To `Brc1ccc2ncnc(NCc3ccco3)c2c1` belongs 3.1%; to `CCC12C(=O)C(CC)(C(c3ccccc3)=C1c1ccccc1)C1C(=O)N(c3ccccc3[N+](=O)[O-])C(=O)C12` (configuration not stated), 2%; to `O=C(Nc1ccc(Cl)c(-c2nc3ccccc3[nH]2)c1)c1ccc(I)o1`, 19.4%. Turning to `COc1ccc(S(=O)(=O)N(CC(N)=O)c2ccc(C)cc2)cc1OC`, the displacement was -0.7%. To `COc1ccc(NC(c2ccccc2)c2ccncc2)cc1` (configuration not stated) belongs -2.5%; to `O=C(O)C1C2C=CC(O2)C1C(=O)Nc1cc(Cl)cc(Cl)c1` (configuration not stated), 3.7%; to `Cc1ccc(OCC(=O)NC(C)c2ccccc2)cc1C` (configuration not stated), 89.2%. In the case of `COc1ccc(C(=O)NCCc2cccc(Cl)c2)cc1OC`, the displacement worked out at 4%. Next, `COc1ccc(N2C(=O)NC(=O)/C(=C/c3cc(Br)c(OCCOc4ccccc4OC)c(OC)c3)C2=O)cc1`: 1.9%; `CCOC(=O)c1ccccc1NC(=O)c1cncc(Br)c1`: 9.2%. Next, `Cc1ccc(N2C(=O)/C(=C/c3ccc(F)cc3)SC2=S)cc1C`: 16.9%. To `Cc1cccnc1NC(=O)Nc1ccc(Cl)cc1` belongs -2.7%; to `C=CCc1cccc2cc(C(=O)NC(C)c3ccccc3)c(=O)oc12` (configuration not stated), -8.5%. Regarding `O=C(C(=O)N1CCOCC1)c1c[nH]c2ccccc12`, the displacement was -1.6%. Next, `CCOC(=O)c1ccccc1NC(=O)c1ccc(N(Cc2ccc(Cl)cc2)S(C)(=O)=O)cc1`: 12.1%; `Cc1ccc(NC(=O)COc2cccc(C)c2C)cc1Cl`: 5%. With `COc1ccc(N(CC(=O)NCc2ccccc2)S(=O)(=O)c2ccc(C)cc2)cc1`, the displacement is -1.4%.

As for `Cc1ccc(NC(=O)C(=O)NCCc2ccccc2)cc1C`, the displacement came out at 13.2%.

For `COc1cc(/C=C2/NC(=S)NC2=O)cc(Cl)c1OC(C)C`, the displacement is -10.1%. Consider `CC1=C(C(=O)Nc2ccc(Br)cc2)C(c2cccs2)NC(=S)N1` (configuration not stated), for which the displacement was determined as 8%.
